Like-named read-outs stand apart in the source and are kept apart here. For some assays here: At least one structure is not confirmed: it was looked up by name or label, or the drawing left a doubt. Some entries share one result that the patent states for a list of compounds.
Columns and labels:
PI3K α/β isoforms [1] = assay: In vitro enzyme assay PI3K α/β; type: biochemical; settings: immunoprecipitated from platelet lysate
Protocol: In vitro enzyme assays were conducted as a primary screen to determine drug candidate isoform affinity and specificity.
The α and β isoforms of the PI3K were immunoprecipitated from a platelet lysate using an antibody that recognised the p85 regulatory subunit common to both forms of the enzyme. The γ isoform was produced as a recombinant protein in the Thrombogenix laboratories. […] Standard phosphorylation assays using phosphatidylinositol and ^32P were used to measure the enzyme activity in the immunoprecipates in the presence or absence of an inhibitor. Enzyme activity was determined over a range of inhibitor concentrations to establish an IC50 value.

PI3K α/β isoforms [2] = settings: literature values; read-out: IC50 against the α/β isoforms of PI3K, previously reported values; cited from earlier work
ATPase = assay: Enzyme screening assay: ATPase; type: biochemical
PDE4 = assay: Enzyme screening assay: PDE4; type: biochemical
protein kinase A = assay: Enzyme screening assay: protein kinase A; type: biochemical
protein kinase C = assay: Enzyme screening assay: protein kinase C; type: biochemical
tyrosine phosphatase = assay: Enzyme screening assay: tyrosine phosphatase; type: biochemical
[3] = test system: PI 3-kinase immunoprecipitated from human platelets; assay: In vitro PI 3-kinase assay (32P incorporation into PI); type: biochemical; settings: PI 3-kinase from human platelets, PI substrate
Protocol: The effect of TGX-25, TGX-33, TGX-37, TGX-40, TGX-41, TGX-57, TGX-84, TGX-90, TGX-93, TGX-98, TGX-99, TGX-101, TGX-106, TGX-107, TGX-108, TGX-109, TGX-111, TGX-112, TGX-113, TGX-115, TGX-120, TGX-121, TGX-123, TGX-124, TGX-126, TGX-127, TGX-130 or TGX-131on PI 3-kinase activity was determined using an in vitro PI 3-kinase assay. This assay was performed using PI 3-kinase immunoprecipitated from human platelets as the enzyme and PI as the substrate. The PI 3-kinase activity was quantitated by measuring the enzymatic incorporation of [^32P] into PI, forming PI([^32P]-3)P, as previously described (Susa et al., 1992, The Journal of Biological Chemistry 267(32):22951-22956.
Washed human platelets were lysed in Triton X-100 lysis buffer (10 mM Tris, pH 7.4, 1% Triton X-100, 2 mM EDTA, 1 mM PMSF) for 30 minutes. The Triton X-100 insoluble fraction was removed by centrifugation of the cell lysates at 15,000 g for 10 minutes. PI 3-kinase was immunoprecipitated by mixing 500 μg of the cell lysate with 1 μg of a rabbit anti-rat antibody against the p85/110 form of PI 3-kinase and 30 μl of 50% Protein A-sepharose beads for 2 hours at 4° C. The Protein A-sepharose-bound PI 3-kinase was isolated by pelleting the beads at 15,000 g for 5 seconds, and washing three times with ice-old Triton X-100 lysis buffer followed by four washes with PI 3-kinase assay buffer (20 mM HEPES, pH 7.4, 1 mM EGTA, 5 mM MgCl2).
PI stored in CHCl3 was dried under N2, resuspended in the lipid buffer (50 mM HEPES, pH 7.2, 1 mM EDTA) at a final concentration of 330 μg/ml, and sonicated for 6 minutes on ice. PI([^32P]-3)P was generated by mixing the immunoprecipitated PI 3-kinase for 20 minutes with 40 μl of the PI, 10 μl of ATP (1 mM) and ^32P-r-ATP (0.5 μCi, 1 μCi/nmol), 10 μl of 10× kinase buffer, in a final assay volume of 100 μl adjusted with H2O. TGX-25, TGX-33, TGX-37, TGX-40, TGX-41, TGX-57, TGX-84, TGX-90, TGX-93, TGX-98, TGX-99, TGX-101, TGX-106, TGX-107, TGX-108, TGX-109, TGX-111, TGX-112, TGX-113, TGX-115, TGX-120, TGX-121, TGX-123, TGX-124, TGX-126, TGX-127, TGX-130 or TGX-131 was preincubated with the PI 3-kinase for 5 minutes prior to the addition of ATP. The assay was terminated with 100 μl of 1 N HCl, and the PI([^32P]-3)P product extracted with 200 μl chloroform:methanol (1:1) and 500 μl 2 M KCl. The PI([^32P]-3)P in the chloroform phase was resolved by thin layer chromatography using a solvent system containing CHCl3:MeOH:HAC:H2O (43:38:5:7) (v:v:v:v), and visualized by autoradiography. The PI([^32P]-3)P spots were then scraped off from the TLC plates, deacylated with 1 ml methylamine:butanol:methanol (42:9:47) (v:v:v) for 4 hours at 53° C., and quantitated using a liquid scintillation counter (LKB 1209 RackBETA).

SMILES	IC50 [3]	other results
O=c1cc(N2CCOCC2)oc2c(-c3ccccc3)cccc12 [LY294002, reference compound]		IC50 (PI3K α/β isoforms [1]): 1 to 1.5 µM; IC50 (PI3K α/β isoforms [2]): 1 to 1.5 µM
O=c1cc(N2CCOCC2)[nH]c2c(Oc3ccccc3)cccc12 [TGX-84, 2-Morpholino-8-phenoxy-4-quinolone]		IC50 (ATPase): > 100 µM; IC50 (PDE4): > 100 µM; IC50 (protein kinase A): > 100 µM; IC50 (protein kinase C): > 100 µM; IC50 (tyrosine phosphatase): > 100 µM
O=c1cc(N2CCOCC2)nc2c(OCc3ccccc3)cccn12 [TGX-131, 8-benzyloxy-2-morpholinyl-4H-pyrido[1,2-a]pyrimidin-4-one]	0.5 µM	
O=c1cc(N2CCOCC2)nc2c(OCc3cccnc3)cccn12 [TGX-140, 8-(3-pyridinylmethyl)oxy-2-morpholinyl-4H-pyrido[1,2-a]pyrimidin-4-one]	10 µM	
O=c1cc(N2CCOCC2)nc2c(OCc3ccccn3)cccn12 [TGX-148, 8-(2-pyridinylmethyl)oxy-2-morpholinyl-4H-pyrido[1,2-a]pyrimidin-4-one]	10 µM	
COc1cccc(COc2cccn3c(=O)cc(N4CCOCC4)nc23)c1 [TGX-163, 8-(3-methoxyphenyl)methoxy-2-morpholinyl-4H-pyrido[1,2-a]pyrimidin-4-one]	1 µM	
CC(C)(C)c1ccc(COc2cccn3c(=O)cc(N4CCOCC4)nc23)cc1 [TGX-169, 8-(4t-butylphenyl)methoxy-2-morpholinyl-4H-pyrido[1,2-a]pyrimidin-4-one]	7.5 µM	
O=c1cc(N2CCOCC2)nc2c(OCc3cccc(Cl)c3)cccn12 [TGX-176, 8-(3-chlorophenyl)methoxy-2-morpholinyl-4H-pyrido[1,2-a]pyrimidin-4-one]	0.5 µM	
Cc1cc(CNc2ccc(F)cc2C)c2nc(N3CCOCC3)cc(=O)n2c1 [TGX-186]	0.01 µM	

— patent US7405211B2, “Therapeutic morpholino-substituted compounds” (AstraZeneca AB, priority 2000, dated 2008)
